In paper PMC13347060, “Structural flexibility of the human vault particle revealed by high-resolution cryo-EM and molecular dynamics simulations” (Nature Communications, 2026):

Target: the molecule itself
Experiment: SEC-MALS; Shodex KW405-4F column, 0.33 mL/min, SEC buffer (25 mM HEPES, 150 mM NaCl, 1 mM TCEP, pH 7.5); full vault (78-mer) against half vaults (39-mer)

Row | Protein | binding result
1 | MVP(I36D) (natural protein, major vault protein, human, gene GenBank BC015623.2 in pGAPZB, mutated by PCR; Predominantly half vaults (39-mer); same construct as m1 apart from the mutation; also called hMVP I36D; source: K. phaffii, integrated mutant hMVP gene, purified (ultracentrifugation, SEC)) not shown | binds
2 | MVP(Q38A, N40A) (natural protein, major vault protein, human, gene GenBank BC015623.2 in pGAPZB, mutated by PCR; Mixture of full vaults (78-mer) and half vaults (39-mer); same construct as m1 apart from the mutations; also called hMVP Q38A-N40A; source: K. phaffii, integrated mutant hMVP gene, purified (ultracentrifugation, SEC)) not shown | binds
3 | MVP(D39A, R42A) (natural protein, major vault protein, human, gene GenBank BC015623.2 in pGAPZB, mutated by PCR; Mixture of full vaults (78-mer) and half vaults (39-mer); same construct as m1 apart from the mutations; also called hMVP D39A-R42A; source: K. phaffii, integrated mutant hMVP gene, purified (ultracentrifugation, SEC)) not shown | binds
